# Results published in the supplement of paper PMC3334620.
# Over roughly 33,000 sequences, “E-score (-0.5 to 0.5)” has its median near -0.012; the highest 2% begin near 0.27. Some of the results follow.
# Molecular target: T1, Vhr1 (UniProt P40522)
# T1 sequence: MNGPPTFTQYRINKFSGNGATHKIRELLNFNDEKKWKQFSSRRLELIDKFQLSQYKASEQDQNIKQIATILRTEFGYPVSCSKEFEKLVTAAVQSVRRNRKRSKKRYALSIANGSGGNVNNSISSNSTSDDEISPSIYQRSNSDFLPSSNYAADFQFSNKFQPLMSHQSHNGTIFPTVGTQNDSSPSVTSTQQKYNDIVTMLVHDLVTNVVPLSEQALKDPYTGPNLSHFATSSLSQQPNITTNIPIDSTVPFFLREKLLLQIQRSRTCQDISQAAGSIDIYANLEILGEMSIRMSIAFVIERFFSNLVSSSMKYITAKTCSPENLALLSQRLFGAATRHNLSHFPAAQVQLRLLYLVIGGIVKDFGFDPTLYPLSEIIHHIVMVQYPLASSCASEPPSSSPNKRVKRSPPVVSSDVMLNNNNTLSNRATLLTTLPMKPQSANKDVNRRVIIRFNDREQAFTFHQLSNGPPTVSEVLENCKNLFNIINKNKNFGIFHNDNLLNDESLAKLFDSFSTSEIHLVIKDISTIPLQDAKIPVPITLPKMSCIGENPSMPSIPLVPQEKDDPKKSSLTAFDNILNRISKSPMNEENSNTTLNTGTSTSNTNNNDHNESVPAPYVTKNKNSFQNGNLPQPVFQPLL
# Experiment: PBM E-score (8-mer binding enrichment) (E-score (-0.5 to 0.5)); higher = stronger / more preferred TF binding; most listed sequences are background and not binding sites
# Conditions: protein concentration: 200 nM; construct: GST-full length
# Outline: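 Using PURExpress in vitro transcription/translation, GST-tagged yeast transcription factors were made in full-length or DNA-binding-domain form. These were applied at about 100-200 nM to double-stranded universal all-10-mer Agilent arrays, and bound protein was detected with fluorescent anti-GST. Scans were normalised with masliner before the Universal PBM Analysis Suite assigned E-scores to ungapped eight-base words pooled with their reverse complements.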
row,Sequence,PBM E-score
1,CAATGGTC,0.115
2,CAAATCCG,-0.0618
3,ACATAGCG,-0.0588
4,CTTTGCAC,-0.125
5,CAGGAGAC,0.129
6,GCATCCTA,-0.0643
7,ACAGCCTA,0.0389
8,ATCAACTG,0.118
9,AAGAGGTC,-0.0935
10,GCCGTTAA,-0.105
11,CCCGTCGG,0.065
12,GTTCACTA,-0.133
13,CAATTGCG,-0.0118
14,AATGTTCC,-0.0334
15,AGGTCATC,-0.103
16,GCCCCAAC,0.0402
17,GAAGAGCC,-0.0925
18,AGTCCGTA,-0.0543
19,CCCCTATC,-0.087
20,ACCGCACG,-0.135
21,ACTCGCAC,0.247
22,ATATAGTG,0.221

row,Sequence,PBM E-score
1,CCAGTTAC,-0.213
2,ATCCCAGG,-0.0351
3,CCTAAAAA,-0.196
4,TGGCAAAA,0.0202
5,ACAATTAT,0.00539
6,ATTTGTGG,0.118
7,ACCAGACT,-0.0222
8,ACGAAGTG,0.0484
9,CTTAAATC,-0.0588
10,TCAAGTAA,-0.0786
11,GCGTTCAA,-0.15
12,ATAAGCCG,-0.0884
13,CTCGTTCA,0.00535
14,GTTGCAGA,-0.212
15,TTCTACAA,-0.0392
16,TCCCTTAA,-0.201
17,AAGATTAT,0.0577
18,CCGGGTCC,-0.125
19,TAATACAA,0.209
20,GATTATTA,0.0488
21,AATTTAGA,-0.16
22,AAATCCCA,-0.222

row,Sequence,PBM E-score
1,CCAACCGC,0.109
2,GGTGGCTA,0.148
3,TCCGCCCA,-0.0417
4,TAGGTATA,0.116
5,AAATATGC,-0.13
6,GAATGGAC,-0.0671
7,CCGTATTA,0.109
8,ATGGTGTC,0.27
9,ACGATTCC,0.185
10,CAATGGGA,-0.023
11,ATGGTATC,0.287
12,GTTATTGA,-0.0104
13,ATTCGTCA,0.0532
14,ACCCTGAC,0.184
15,GGATCTGA,0.0507
16,AGTATCTA,0.0871
17,CCTTAGGC,-0.264
18,AGTGTGCG,0.0451
19,CCGCTGTA,0.13
20,CGCCCACG,-0.0841
21,CAATCGCA,0.143
22,ACGACTCA,0.445

row,Sequence,PBM E-score
1,GTCACTTA,0.155
2,ATGGGCCG,0.121
3,TTAATTAA,-0.0237
4,GACGCATC,0.00633
5,CGCCTAGA,-0.032
6,CATAGGCA,-0.121
7,GGGAAGTA,-0.02
8,TCCCCGAA,-0.218
9,GGTCCTAA,-0.044
10,ACAGGCGT,-0.22
11,ATCTTTAA,-0.105
12,ACTTATAT,0.199
13,AGGGGCGC,0.0808
14,AAGGAGCC,-0.114
15,AAACTTTC,-0.246
16,CCATGCTC,0.118
17,CAAAAGAA,0.00762
18,CTCTGTGC,-0.0953
19,CAAGATTA,0.0396
20,CTTGTCTC,-0.109
21,AAAGCCCC,-0.147
22,CAAAGCAG,-0.0823

row,Sequence,PBM E-score
1,AGGAGGAG,-0.171
2,CTTTGATA,0.00159
3,CGGTGTTC,0.0334
4,AGGCGAAT,-0.146
5,GGTACGAA,0.14
6,GCTCACAC,0.148
7,GAGATGCA,0.17
8,ATGCTGGG,0.097
9,AATTTACG,-0.0773
10,ACCAGTCG,0.166
11,AAGTCGGC,-0.177
12,CAGAGAAA,0.153
13,ATCGTGTC,0.115
14,ATTAATGA,0.199
15,ACGTGAGG,-0.107
16,ATCAGAGG,-0.156
17,AAACAATC,-0.063
18,CAATCCCA,-0.0663
19,ATACATGG,0.251
20,CGCTTGAA,-0.0421
21,CTGGATTC,0.0775
